This is an account of results in the supplement of paper PMC11166567.

Each structure is given as a SMILES string. The list shows a part of the results.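 Rule for the calls: active = permutation test q below 0.05 after Benjamini-Hochberg correction; inactive = q of 0.05 or more.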

One test deals with A549. As to the kind of experiment: mean average precision of replicate retrieval against DMSO controls (Cell Painting phenotypic activity) (fraction (0-1)); higher = stronger, more reproducible morphological phenotype distinct from DMSO; extreme values may be limits of the assay. The conditions noted are these: 5 µM.
The test system of the next test is U2OS. The test is described as above. The conditions noted are these: 5 µM.
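Note: cosine similarity of well-level aggregated Cell Painting profiles ranks each compound's replicate wells against DMSO wells, four replicate plates, significance from 100,000 rank shuffles.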

As for `Cc1[nH]c(/C=C2\C(=O)Nc3ccccc32)c(C)c1CCC(=O)O`, the mean average precision in the test on A549 (24 h) is active: 0.483; in the test with A549 (48 h), active: 0.951; in the test on U2OS (24 h), active: 0.75; in the test on U2OS (48 h), active: 0.5.

For `CC#CC(=O)N1CCC[C@H]1c1nc(-c2ccc(C(=O)Nc3ccccn3)cc2)c2c(N)nccn12`, the mean average precision in the test on A549 (24 h) is active: 0.373; in the test on A549 (48 h), active: 0.772; with U2OS (24 h), active: 0.441; in the test on U2OS (48 h), active: 0.392.

Take `CCCCOc1cc(CC2CNC(=O)N2)ccc1OC` (stereo unspecified): the mean average precision was active: 0.412 in the test on A549 (24 h), active: 0.393 with A549 (48 h), inactive: 0.0982 in the test with U2OS (24 h) and inactive: 0.182 in the test with U2OS (48 h).

In the case of `O=C(Nc1nc2cccc(-c3ccc(CN4CCS(=O)(=O)CC4)cc3)n2n1)C1CC1`, the mean average precision was active: 1 in the test on A549 (24 h), active: 1 in the test with A549 (48 h), active: 0.798 in the test with U2OS (24 h) and active: 0.938 in the test on U2OS (48 h).

Turning to `CCn1c(=O)[nH]c2ccccc21`, the mean average precision was active: 0.465 in the test with A549 (24 h), active: 0.478 with A549 (48 h), active: 0.579 with U2OS (24 h) and active: 0.468 in the test with U2OS (48 h).

As for `CC(O)C(CO)NC(=O)C1CSSCC(NC(=O)C(N)Cc2ccccc2)C(=O)NC(Cc2ccccc2)C(=O)NC(Cc2c[nH]c3ccccc23)C(=O)NC(CCCCN)C(=O)NC(C(C)O)C(=O)N1` (stereo unspecified), the mean average precision was inactive: 0.187 in the test on A549 (24 h), inactive: 0.212 in the test with A549 (48 h), active: 0.336 in the test with U2OS (24 h) and inactive: 0.132 in the test with U2OS (48 h).

On to `COc1ccc(Cl)cc1[C@]1(F)C(=O)Nc2cc(C(F)(F)F)ccc21`, for which the mean average precision was inactive: 0.174 in the test on A549 (24 h), active: 0.477 with A549 (48 h), active: 0.499 in the test with U2OS (24 h) and inactive: 0.167 with U2OS (48 h).

Turning to `c1ccc(-c2nn3c(c2-c2ccnc4cc(OCCN5CCOCC5)ccc24)CCC3)nc1`, the mean average precision in the test on A549 (24 h) was active: 0.724; with A549 (48 h), active: 1; in the test on U2OS (24 h) it was active: 1; with U2OS (48 h), active: 0.631.

For the compound `Cc1cc(-c2ncc(CC(=O)Nc3ccc(-c4cnccn4)cn3)cc2C)ccn1`, the mean average precision was active: 0.712 in the test on A549 (24 h), active: 1 in the test with A549 (48 h), inactive: 0.142 in the test with U2OS (24 h) and inactive: 0.0907 in the test with U2OS (48 h).
